Experimental data: the supplement of paper PMC11417369
The other results are listed elsewhere or left out.

Test system: PfSIP2 AP2 domain 1 (GST-tagged)
Assay: gcPBM binding intensity (ln(normalized median fluorescence intensity)); higher = stronger DNA binding
In short: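 In this array assay, P. falciparum DNA-binding domains with a GST tag, expressed in E. coli, were applied for 1 h to primer-extended double-stranded 36-bp intergenic genomic probes and negative controls on an Agilent 4 × 180k array. Bound protein was visualised with Alexa488 anti-GST antibody at 488 nm. Binding intensity is the highest Masliner-normalised natural-log median intensity across replicate spots of either probe orientation.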

Row | Sequence | gcPBM binding intensity (ln)
1 | TAATTTCTTATGTAGTGTACAAATAATATATGATAT [XGTACX_site597] | 7.22
2 | AATATCTGTATATCCACACACATATATATATATATA [CACACA_site4987] | 9.45
3 | TAATCGGTAATATTAACACACACATTTATATATATT [CACACA_site8274] | 7.08
4 | GTATTAATAAAAATACGTACTTATTATTTATAATAA [XGTACX_site7672] | 6.98
5 | ATTATTCATATAACACGTACAAAACGAAAAACAAAT [XGTACX_site3873] | 7.65
6 | AATATCACCACATTGTTACTATAATATATAAAAAAG [XGTACX_negctrl_site384] | 7.1
7 | AAAAGGAGAAATATTGCACACGTGCAAAATGGTATG [CACACA_site4300] | 9.83
8 | ATTCATAAAAGTTGTACATGCAATTTTTTTTTTTTT [TGCATGCA_site270] | 7.01
9 | ATTTTGTTATGAAACACACACATATATATATATATA [CACACA_site3650] | 9.65
10 | TATATGCCTATAAGAAGTACTGTGTAATGTAATATA [XGTACX_site8089] | 6.87
11 | TAAACATAAATATGCACACATATACATATATTCATA [CACACA_site2667] | 7.34
12 | AAGAAAAATATATTTATATATATATATATTAAATAT [TGCATGCA_negctrl_site500] | 7.16
13 | AATTTTATACGATAAACATGCAAATAAATAAATAAA [TGCATGCA_site227] | 7.1
14 | AAAGAAAAAAAAAACACACACACACCCATTCAATAT [CACACA_site38] | 6.95
15 | ACAGCCAATACGGAAACACACAAGTTATTTTATCAT [CACACA_site5507] | 7.03
16 | TATAATAATATTTATTGTACAATTAGTTTAATTCAT [XGTACX_site272] | 7.08
17 | TTTATTATATAAACATGTACACAATTTGGTATATTC [XGTACX_site3112] | 7.24
18 | AAATTATGCATCGAGGTGCGTCTTAAAATATAGTGG | 10.3
19 | ATATAAATTCAAATTACACACATTTATTTTTTTTAC [CACACA_site53] | 7.01

Row | Sequence | gcPBM binding intensity (ln)
20 | CTACATAATAAAAAAAGTACATTCTAATAAATTGAC [XGTACX_site4504] | 7.19
21 | ACTAATAATTTGTCGGTGCATAAAATTATTTTTATT [GTGCAC_site9840] | 10.7
22 | ATATTATATATATAGGTGCGAGTATTTTATAAATAT [GTGCAC_site9889] | 9.06
23 | TAAGTATACACATACACACACACACTAATAAAAAAA [CACACA_site8035] | 7.15
24 | TATACACCCGGACACACACACATATATATATATATA [CACACA_site5030] | 9.12
25 | ATATATATATTATATGCACACGTTAAAATTTCATAT [CACACA_site4552] | 8.3
26 | TAAAAATATTAATAAACACACAATGAGATATTGAAT [CACACA_site3153] | 6.82
27 | AAATATAAAATTTATTGTACATTATATATAATATAT [XGTACX_site1416] | 6.94
28 | TGATATATTTATATTACACACTTAAACGAAAAAAAA [CACACA_site3021] | 6.96
29 | TATTATAATATTTATACACACATAATTTTGATAAAT [CACACA_site583] | 6.95
30 | CATTCTTGTTTAAAAAGTACATAAACATATATATAT [XGTACX_site1751] | 8.64
31 | AAAAAAAATAAAGAGAAAAAAAAAAGAAAATTATAT [GTGCAC_negctrl_site550] | 6.7
32 | TAAATTAATATGTATCGTACAATATATAAAACGATG [XGTACX_site2818] | 7.01
33 | ACATATTATATAACTCGTACTCGTAAAATATGTTGT [XGTACX_site2240] | 6.99
34 | TTCTTCTGTTTTATTACACACCATTTTGCGTATACA [CACACA_site2070] | 7.6
35 | GTCATAAATGTACGCACACATACATAAACATATACA [CACACA_site650] | 7.61
36 | GTTCTTTTATATATTTGTACATATTTATATATATTG [XGTACX_site4078] | 7.51
37 | ACATAGCAATGTTTCACACACAAGAAAAAATACAAT [CACACA_site2379] | 6.92
38 | TTTGAACTCTTAAGTGGTACAAATTTGTATTTTCTC [XGTACX_site2322] | 6.92

Row | Sequence | gcPBM binding intensity (ln)
39 | GAAATGTGGTAATATACACACACGCATATATTTATA [CACACA_site6285] | 6.95
40 | AATGGAATATATATTTGTACATAAATATTATAATAA [XGTACX_site8524] | 6.94
41 | TATAAATAAAAATATACACACTGTATTATTGTAATA [CACACA_site7721] | 6.72
42 | TTTACTCCTACAACATGTACATAAAATAAATTTTTT [XGTACX_site5010] | 7.51
43 | ACATGTTAACTAAATGTACACACCTATGTTGATGTA [CACACA_site1821] | 6.97
44 | TTATTTACAACTTTTTTTTTTTTATTTTATTTTATT [CACACA_negctrl_site341] | 6.58
45 | AATATAAGTAGTACAGTGCATATAATAATTAGAAGA [GTGCAC_site9485] | 8.75
46 | GATTAAACACAAAGAAGTACGGACATAAAAAAAAAA [XGTACX_site3686] | 7.18
47 | TTGATTTATATTTAATGTACATTTTTACAGAAAATT [XGTACX_site2747] | 6.93
48 | CCATAAAAAGGATACACACACACACGCACATATATA [CACACA_site6550] | 7.28
49 | TATTATTATTATTACACACACAATTATATTTACCCC [CACACA_site503] | 7.46
50 | TCGTGGTTTTAATAAGTGCGCAATTTAAATATTTTT | 8.67
51 | GTATATATATATATATATATATATTTTTATTTATTT [CACACA_negctrl_site589] | 7.42
52 | ATATAAATAATGTTGACACACACAATAATCTTATTA [CACACA_site9197] | 7.07
53 | AAAATATGGATTCATGATATTAAATTTAATTTAATG [XGTACX_negctrl_site214] | 6.71
54 | GTTATACTCATATATACACACATATGTAAATATATA [CACACA_site5764] | 7.17
55 | ATTATATTAGGTAATCAGTTAAATGTTTCCTTTTTA [CACACA_negctrl_site1229] | 6.6
56 | ATACGAAAAAAAAAAAGTACACAAAAATATCTACAT [XGTACX_site2051] | 7.01
57 | TTTATATAATTTTGTGGTACTTATGTGTGTATATTA [XGTACX_site706] | 7.08
